# Test results published in PubChem BioAssay AID504706 (National Center for Advancing Translational Sciences (NCATS), 2011).
# Among all 320,000 compounds or so, about 200 (0.062%) were called active. The inconclusive results got no clear call from the source; some entries with a clear call stand among them for comparison. Calls come from the whole dose curve; as a rule, active = well fitted activation curve with a large enough effect; inconclusive = small, poorly fitted or top-dose-only effect; inactive = no such curve, though single readings can be large or run the other way. No potency is given beside an inconclusive call; the fits are too rough.
# Test: qHTS assay for re-activators of p53 using a Luc reporter; note: nearly all actives have a fitted effect of over 45% in size; for activity change, positive = activation: % of control where 0% means no effect
# Conditions: H1299 p53-A138V BP100-luciferase reporter, luminescence, 24 h; series mostly up to 92.2 µM; activity change, positive = activation: at the top concentration
# Method in brief: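 H1299 (p53-null), stable ts p53-A138V + BP100-Luc; 1000 cells/well, Opti-MEM/10% FBS; cpd 4 pt, 1:5; 24 h, 37 deg C, 5% CO2; detection reagent 10 min RT; luminescence.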
# Potency is the fitted concentration of half-maximal effect; tags give direction and shape of the fitted curve.
Structure (SMILES),"activity change, positive = activation",Potency
Cn1c2ccccc2c2cc(/C=N/NC(=O)c3ccc(N)cc3)ccc21,inactive: -1.92%,
c1coc(-c2nnc(SCc3cn4ccccc4n3)o2)c1,inactive: 7.98%,
Cc1ccc(S(=O)(=O)N(C)C)cc1NC(=O)CSc1nnc(C2CC2)n1C1CC1,inactive: 3.09%,
Cc1ccc(C(=O)N/N=C\c2cccn2C)cn1,,"inconclusive [activator, partial curve, poor fit]"
COc1ccc(S(=O)(=O)NC(C)C(=O)N2CCCC2)cc1Cl (centres undefined),,"inconclusive [activator, partial curve, poor fit]"
Cc1ccc(SCc2cn3c(C)csc3n2)cc1,,"inconclusive [activator, partial curve, poor fit]"
Cn1cc(C2CC(c3ccccc3)=NN2C(=O)c2ccccc2)c2ccccc21 (centres undefined),,"inconclusive [activator, partial curve, poor fit]"
Fc1ccccc1/C=N/Nc1nc2ccccc2o1,,"inconclusive [activator, full curve, poor fit]"
O=c1c2c3c(sc2nc2sc(CN4CCOCC4)cn12)CCCC3,inactive: -2.87%,
CCCCn1c(SCC(=O)Nc2nnc(C(C)C)s2)nc2c1c(=O)n(C)c(=O)n2C,inactive: 3.84%,
CC(=O)c1ccccc1C(=O)N1CCCC(CNC(=O)c2ccccc2Cl)C1 (centres undefined),,"inconclusive [activator, single point]"
N#Cc1ccc(N2Cc3ccccc3C2=NC(=O)c2cccs2)cc1,,"inconclusive [activator, full curve, poor fit]"
O=C(CSc1nnc(-c2ccccc2Br)o1)N1CCOCC1,,"inconclusive [activator, full curve, poor fit]"
C=COCCNC(=O)Nc1ccc(Cl)c(Cl)c1,,"inconclusive [activator, single point]"
CCOc1ncccc1C(=O)NNC(=O)c1ccc(NS(=O)(=O)c2cccs2)cc1,inactive: -2.21%,
O=C(CCCN1C(=O)/C(=C/c2cccs2)SC1=S)NNC(=O)c1cccnc1,,"inconclusive [activator, partial curve, poor fit]"
CCCCOc1ccc(C(=O)N2CCNC(=O)C2CC(=O)OC(C)C)cc1 (centres undefined),,"inconclusive [activator, single point]"
COC(=O)/C=C/C(=O)Nc1ccc(O)c(Cl)c1,,"inconclusive [activator, partial curve, poor fit]"
CC(=O)c1ccc(N(C(=O)Cc2c[nH]c3ccccc23)C(C(=O)NC2CCCCC2)c2cccs2)cc1 (centres undefined),,"inconclusive [activator, single point]"
Fc1ccc(Cc2nnc(-c3cccs3)o2)cc1,,"inconclusive [activator, partial curve, poor fit]"
Cc1nn(C(C)C(=O)NCCCN2CCCC2)c(=O)c2nn(-c3ccccc3)c(C)c12 (centres undefined),inactive: 1.14%,
CCn1cc(Br)c(C(=O)Nc2ccc(F)cc2F)n1,inactive: 3.01%,
CC(C)(C)C(=O)OCc1cn(-c2ccccc2)nn1,,"inconclusive [activator, partial curve, poor fit]"

Structure (SMILES),"activity change, positive = activation",Potency
COc1ccc(CN2CN(C(C)C)CSC2=S)cc1,,"inconclusive [activator, single point]"
CCN1CCc2c(sc(NC(=S)NC(=O)c3ccccc3)c2C#N)C1,inactive: 8.21%,
Cc1ccc(CNC(=O)C2CCN(S(=O)(=O)c3ccc4c(c3)OCCCO4)CC2)cc1,,"inconclusive [activator, single point]"
CCOCCCNC(=O)/C(C#N)=C/c1ccc(-c2ccc(S(=O)(=O)N3CCOCC3)cc2)o1,inactive: -7.19%,
COc1ccccc1NC(=S)NNC(=O)c1nn(C)c(C)c1Br,,"inconclusive [activator, partial curve, poor fit]"
Clc1ccccc1OCc1nc(-c2ccccn2)no1,,"inconclusive [activator, full curve, poor fit]"
CNC(=O)NC(=O)C(C)OC(=O)c1c2c(nc3ccccc13)/C(=C/c1cccs1)CC2 (centres undefined),,"inconclusive [activator, full curve, poor fit]"
CC(C)c1ccc(C2CC(=O)c3cnc(NC(=O)c4ccco4)nc3C2)cc1 (centres undefined),,"inconclusive [activator, single point]"
O=C(NCCc1ccc2c(c1)OCCO2)c1ccccn1,,"inconclusive [activator, full curve, poor fit]"
C=CCNC(=O)CCc1nnc(C2(c3ccc(Cl)cc3)CCC2)o1,,"inconclusive [activator, partial curve, poor fit]"
COc1cccc(/C=N/n2c(-c3ccco3)nc3ccccc3c2=O)c1,,"inconclusive [activator, partial curve, poor fit]"
CCOc1ccc(S(=O)(=O)Nc2ccccn2)c2ccccc12,inactive: -2.63%,
CN(CC(=O)Nc1ccccc1Br)c1ncnc2sccc12,inactive: -4.82%,
COc1ccccc1C(=O)NC1CCCCCCC1,,"inconclusive [activator, partial curve, poor fit]"
CCS(=O)(=O)n1nc(-c2ccc(OC)cc2)nc1SC,,"inconclusive [activator, partial curve, poor fit]"
CC(C)CNC(=O)c1ccccc1NC(=O)CCSc1ccccc1,inactive: 2.21%,
C[C@H](CO)N1C[C@H](C)[C@@H](CN(C)S(=O)(=O)c2cn(C)cn2)Oc2ccc(NC(=O)Nc3ccc4c(c3)OCO4)cc2C1=O,,"inconclusive [activator, full curve, poor fit]"
O=C1c2ccccc2S(=O)(=O)N1CC1CC(c2ccc(Cl)cc2)=NO1 (centres undefined),,"inconclusive [activator, partial curve, poor fit]"
COc1ccccc1OCc1csc(NC(=O)c2ccco2)n1,,"inconclusive [activator, partial curve, poor fit]"
Cc1cc(=O)n2nc(-c3ccc(C(F)(F)F)cc3)sc2n1,inactive: 21.5%,
CC(C)c1ccc2c(c1)C1Cc3ccccc3C1N2 (centres undefined),,"inconclusive [activator, full curve]"
COCc1cc(=O)[nH]c(/N=C(\N)Nc2cccc(C)c2)n1,inactive: -7.45%,
O=C(NCc1ccccc1)c1ccc2c(c1)OCCO2,,"inconclusive [activator, single point]"

Structure (SMILES),"activity change, positive = activation",Potency
CCc1ccc(N=c2c([N+](=O)[O-])nn(-c3ccc4c(c3)OCCO4)n2O)cc1,,"inconclusive [activator, full curve]"
CN(Cc1cccs1)C(=O)Cc1c[nH]c2ccccc12,,"inconclusive [activator, single point]"
CCCCC(=O)c1c(O)c2ccccc2oc1=O,,"inconclusive [activator, single point]"
CCN(CC)S(=O)(=O)c1cccc(NC(=O)CCNC(=O)NC23CC4CC(CC(C4)C2)C3)c1,inactive: 3.11%,
O=C(Nc1ccc2c(c1)oc1ccccc12)c1ccncc1,,"inconclusive [activator, partial curve, poor fit]"
Cc1ccc2nc(SCC(=O)NCc3ccc4c(c3)OCO4)nc(=O)n2c1,inactive: -5.89%,
O=[N+]([O-])c1cc(-c2cnc3ccccc3n2)ccc1Cl,,"inconclusive [activator, partial curve, poor fit]"
COc1ccc2nc(NC(=O)CSc3nc(SC)ns3)sc2c1,,"inconclusive [activator, full curve, poor fit]"
O=C1OCCC1Sc1nnc(-c2ccc(O)cc2)o1 (centres undefined),inactive: -1.54%,
CCCN1C2CCCC1CC(NC(=O)NC13CC4CC(CC(C4)C1)C3)C2 (centres undefined),,"inconclusive [activator, single point]"
CC(=O)c1ccc(NC(=O)Nc2ccc(Cl)cc2)cc1,,"inconclusive [activator, partial curve, poor fit]"
COc1ccc2cc(C(=O)NCc3ccccc3)[nH]c2c1,inactive: 3.56%,
Cc1ccc(NC(=O)c2cc(C)on2)cc1,,"inconclusive [activator, full curve, poor fit]"
CC(=O)c1ccc2c(c1)C1C=CCC1C(C(=O)O)N2 (centres undefined),inactive: -5.36%,
COc1ccccc1-c1cc2ccccc2[nH]1,,"inconclusive [activator, partial curve, poor fit]"
COC(=O)c1c(-c2ccc(SC)cc2)sc2ccc(OC)cc12,,"inconclusive [activator, full curve, poor fit]"
O=C(c1cc(Cl)ccc1[N+](=O)[O-])n1cnc2ccccc21,,"inconclusive [activator, single point]"
O=C(NCCc1ccc(Cl)cc1)C1CCCN1C(=O)Nc1ccccc1 (centres undefined),,"inconclusive [activator, single point]"
Cc1ccc(NC(=O)c2ncn(CC(=O)NCc3ccccc3)n2)cc1C,,"inconclusive [activator, full curve, poor fit]"
COc1cccc(CN(C)Cc2c(O)ccc3ccccc23)c1,inactive: 6.44%,
CCOc1ccc(NC(=O)C2CCCN(C)C2)cc1 (centres undefined),,"inconclusive [activator, single point]"
CCOc1ccc(-c2nc(-c3ccncc3)no2)cc1OCC,,"inconclusive [activator, partial curve, poor fit]"
Cc1ccc(/C=N\NC(=O)c2ccc3c(c2)OCO3)o1,,"inconclusive [activator, full curve, poor fit]"
